# From patent US20260055180A1 (ABDERA THERAPEUTICS, published 2026)
# T1: hDLL3 (human, UniProt Q9NYJ7 27-492, limits assumed)
# T1 construct: also called human DLL3 soluble protein
# T1 sequence (looked up): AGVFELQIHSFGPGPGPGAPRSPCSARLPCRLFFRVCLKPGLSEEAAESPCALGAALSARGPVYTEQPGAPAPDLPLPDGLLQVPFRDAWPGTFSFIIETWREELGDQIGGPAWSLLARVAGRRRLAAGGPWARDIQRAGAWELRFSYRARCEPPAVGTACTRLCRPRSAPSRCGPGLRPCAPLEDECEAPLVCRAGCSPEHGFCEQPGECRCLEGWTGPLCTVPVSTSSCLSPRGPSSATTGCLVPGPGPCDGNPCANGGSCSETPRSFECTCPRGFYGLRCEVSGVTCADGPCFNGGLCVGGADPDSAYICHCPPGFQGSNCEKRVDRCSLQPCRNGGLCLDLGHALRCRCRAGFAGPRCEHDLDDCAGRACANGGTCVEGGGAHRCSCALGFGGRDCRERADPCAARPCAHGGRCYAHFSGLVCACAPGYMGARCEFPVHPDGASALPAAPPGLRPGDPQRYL
# B1: Anti-FOLR1x4 (GGGGS)3 (Fc fusion)
# chain: QVQLVESGGGLVQPGGSLRLSCAASGFTVSNSVMAWYRQTPGNEREFVAIINSIGITNYADSVKGRFTISRDNSKNTLYLQMNSLRAEDTAVYVCNRNFDRIYWGQGTLVTVSSGGGGSGGGGSGGGGSQVQLVESGGGLVQPGGSLRLSCAASGFTVSNSVMAWYRQTPGNEREFVAIINSIGITNYADSVKGRFTISRDNSKNTLYLQMNSLRAEDTAVYVCNRNFDRIYWGQGTLVTVSS[left out - human IgG1 Fc with C220S (EU numbers)]
# B2: Anti-FOLR1x4 (GGS)4 (Fc fusion)
# chain: QVQLVESGGGLVQPGGSLRLSCAASGFTVSNSVMAWYRQTPGNEREFVAIINSIGITNYADSVKGRFTISRDNSKNTLYLQMNSLRAEDTAVYVCNRNFDRIYWGQGTLVTVSSGGSGGSGGSGGSQVQLVESGGGLVQPGGSLRLSCAASGFTVSNSVMAWYRQTPGNEREFVAIINSIGITNYADSVKGRFTISRDNSKNTLYLQMNSLRAEDTAVYVCNRNFDRIYWGQGTLVTVSS[left out - human IgG1 Fc with C220S (EU numbers)]
# B3: Anti-FOLR1x2; Anti-DLL3x2; (GGGGS)3 (bispecific antibody)
# chain: QVQLVESGGGLVQPGGSLRLSCAASGFTVSNSVMAWYRQTPGNEREFVAIINSIGITNYADSVKGRFTISRDNSKNTLYLQMNSLRAEDTAVYVCNRNFDRIYWGQGTLVTVSSGGGGSGGGGSGGGGSEVQLVESGGGEVQPGGSLRLSCAASGSIFSINAMGWYRQAPGKQRELVAGFTGDTNTIYAESVKGRFTISRDNAKNTVYLQMSSLRAEDTAVYYCAADVQLFSRDYEFYWGQGTLVTVK[left out - human IgG1 Fc]
# B4: Anti-FOLR1x2; Anti-DLL3x2; (GGS)4 (bispecific antibody)
# chain: QVQLVESGGGLVQPGGSLRLSCAASGFTVSNSVMAWYRQTPGNEREFVAIINSIGITNYADSVKGRFTISRDNSKNTLYLQMNSLRAEDTAVYVCNRNFDRIYWGQGTLVTVSSGGSGGSGGSGGSEVQLVESGGGEVQPGGSLRLSCAASGSIFSINAMGWYRQAPGKQRELVAGFTGDTNTIYAESVKGRFTISRDNAKNTVYLQMSSLRAEDTAVYYCAADVQLFSRDYEFYWGQGTLVTVK[left out - human IgG1 Fc]
# B5: Anti-FOLR1x2; Anti-DLL3x2; (GGS)3 (bispecific antibody)
# chain: QVQLVESGGGLVQPGGSLRLSCAASGFTVSNSVMAWYRQTPGNEREFVAIINSIGITNYADSVKGRFTISRDNSKNTLYLQMNSLRAEDTAVYVCNRNFDRIYWGQGTLVTVSSGGSGGSGGSEVQLVESGGGEVQPGGSLRLSCAASGSIFSINAMGWYRQAPGKQRELVAGFTGDTNTIYAESVKGRFTISRDNAKNTVYLQMSSLRAEDTAVYYCAADVQLFSRDYEFYWGQGTLVTVK[left out - human IgG1 Fc]
# Target: T2, hFOLR1 (human, UniProt P15328 25-234, limits assumed)
# T2 construct: also called Human FOLR1; human FOLR1
# Experiment: ELISA
row,Binder,EC50 [nM]
1,B1,0.12
2,B2,0.14
3,B3,0.13
4,B4,0.11

# Target: T3, mFOLR1 (mouse, UniProt P35846 25-232, limits assumed)
# T3 construct: also called Mouse FOLR1; murine FOLR1
# Experiment: ELISA
row,Binder,EC50 [nM]
1,B3,0.08
2,B4,0.07
3,B5,0.09

# Target: T2, hFOLR1
# Experiment: BLI (Octet), captured on AHC sensor, antigen in solution
# T2 sequence (P15328 25-234 limits assumed): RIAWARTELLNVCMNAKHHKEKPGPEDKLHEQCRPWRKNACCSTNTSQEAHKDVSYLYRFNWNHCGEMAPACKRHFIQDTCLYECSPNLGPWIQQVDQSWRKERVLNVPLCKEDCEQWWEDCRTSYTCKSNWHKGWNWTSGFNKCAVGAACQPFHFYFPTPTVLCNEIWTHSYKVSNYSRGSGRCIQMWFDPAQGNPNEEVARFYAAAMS
Binder,Kd [nM],koff [s⁻¹],kon [M⁻¹ s⁻¹]
B1,2.86,0.000953,333000
B2,2.85,0.000853,299000
B3,2.75,0.00111,405000
B4,2.32,0.000932,401000

# Target: T3, mFOLR1
# Experiment: as above
# T3 sequence (P35846 25-232 limits assumed): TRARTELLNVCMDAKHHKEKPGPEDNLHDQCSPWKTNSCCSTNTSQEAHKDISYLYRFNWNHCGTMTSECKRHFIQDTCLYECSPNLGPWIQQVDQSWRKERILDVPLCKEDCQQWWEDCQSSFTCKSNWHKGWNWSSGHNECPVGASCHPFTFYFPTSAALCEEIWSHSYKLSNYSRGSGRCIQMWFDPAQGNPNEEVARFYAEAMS
Binder,Kd [nM],koff [s⁻¹],kon [M⁻¹ s⁻¹]
B3,8.32,0.00407,490000
B4,7.99,0.00386,483000
B5,7,0.00399,553000

# Target: T1, hDLL3
# Experiment: as above
Binder,Kd [nM],koff [s⁻¹],kon [M⁻¹ s⁻¹]
B3,1.53,0.000306,200000
B4,1.24,0.000267,215000
B5,1.43,0.000312,219000
